# Experimental data from ChEMBL document CHEMBL4888484, “Replenishing the malaria drug discovery pipeline: Screening and hit evaluation of the MMV Hit Generation Library 1 (HGL1) against asexual blood stage Plasmodium falciparum ,using a nano luciferase reporter read-out” (2022).
# Among all 150,000 compounds or so, about 540 (0.36%) showed an effect of 50% or more. This is one part of the list.
# System: Plasmodium falciparum
# Test: Primary screen in NF54 nanoGlo assay, in single point, at 2uM, 72h; a lower Z score goes with more inhibition
# Format: functional, Erythrocyte
# Settings: timepoint 72 hour
Compound,% Inhibition,Z score
Cc1nn(C)c2nc(N3CCN(S(=O)(=O)N(C)C)CC3)sc12,-29%,3.39
Cc1ccc(S(=O)(=O)N2CCN(C(=O)CCn3nc(C)c(Br)c3C)CC2)cc1,-2%,0.33
COc1cc2c(cc1OC)[C@@H](c1ccccn1)N(C(C)=O)CC2,-25%,3.39
CCCCOc1cc(OCCC)ccc1C(=O)NC1CN(C(C)=O)C1,-11%,1.42
COc1ccc(NC(=O)c2coc(Br)c2)cn1,6%,-0.88
Cc1cc(C(=O)N(Cc2ccco2)C2CC2)on1,-15%,1.5
O=C(N[C@@H]1c2ccccc2CC[C@@H]1O)C1CCc2cccc(O)c21 (some centres undefined),-12%,1.24
CC12CN(S(=O)(=O)c3ccc4c(c3)OCCO4)C3(C(=O)NCCc4ccccc4)CC1CCC23C (centres undefined),-11%,1.42
Cc1nc(N)ncc1C(=O)NC[C@@H]1C[C@H](F)CN1,-11%,1.58
COCc1nnc2c3ccc(Cl)cc3nc(N3CCN(C(=O)c4c(F)cccc4F)[C@@H](C)C3)n12,-20%,2.38
CC[C@@H]1Oc2ccc(NC(=O)c3ccccc3)cc2CN(C2CCCCC2)C1=O,-4%,0.49
CCCc1nnnn1Cc1nc2cc(C(F)(F)F)ccc2o1,0%,0.05
CCN1CCCC[C@@H]1CNc1ncccc1C(N)=O,1%,-0.2
CC(=O)c1c(C)[nH]c(C(=O)N2CCn3c2nc2ccccc23)c1C,-6%,1.07
CS(=O)(=O)C1(C(=O)NCC(=O)N2CCCC2)CCCC1,-3%,0.52
Cc1cc(Br)cn2c(CNC[C@@H](CO)c3cccnc3)cnc12,-7%,0.72
CC(C)CN(CC(=O)N(CCc1ccccc1)Cc1ccco1)C(=O)C1CCC1,-8%,0.77
Cc1c(Cl)cccc1S(=O)(=O)N1CCc2nc(-c3ccccc3)sc2C1,-6%,0.64
Cc1nc(C(=O)Nc2cccc3cccnc23)c[nH]1,15%,-1.76
COc1ccccc1NC(=O)COc1ccccc1C(=O)Nc1nccs1,2%,-0.23
Cc1ccc(CNC(=O)[C@H]2CCCN(C3CCN(C(C)C)CC3)C2)s1,9%,-1.12

Compound,% Inhibition,Z score
C[C@]1(NC(=O)Nc2cccc(-n3cncn3)c2)CCS(=O)(=O)C1,1%,-0.1
Cc1nc([C@H]2CC23CCN(Cc2c(F)cccc2F)CC3)no1,-10%,1.35
O=C(O)c1cc2n(n1)CCN(C1Cc3ccccc3C1)C2,-9%,1.63
CC(C)(C)[C@@H]1CN(C(=O)c2ncccc2O)c2ccccc21,-15%,2.38
Cc1ncsc1C(=O)Nc1ccc2c(c1F)CCNC2=O,-13%,2.07
O=S(=O)(C[C@H]1CCOC1)N1CCN(c2ccccc2O)CC1,-4%,0.36
CN1C(=O)[C@H](CC(=O)NCc2cccc(-c3ccccc3)c2)N(C)C1=O,-6%,0.97
COc1ccc(CN(C)C(=O)C[C@]2(c3ccccc3F)CC(=O)N(C3CCCCC3)C2=O)cc1OC,-2%,0.43
CC#CC[C@@H](CO)NCc1c(C)nc2sc(C)cn12,4%,-0.54
O=C(c1ccc(S(=O)(=O)N[C@H]2CCOC2)cc1)N1CCCC1,-6%,1.13
COc1ccc(NC(=O)Nc2nnc3cccc(OC)n23)cc1,-11%,1.23
CC(C)(C)CC(=O)N1CC(=O)N2CC[C@@H](CC(=O)NCCN3CCCC3)[C@@H](/C=C\COc3ccccc3C1)C2,-7%,1.08
C[C@H](Nc1cccc(N2CCCC2=O)c1)C(=O)Nc1ccc2ccccc2c1,-28%,3.34
CC(C)C[C@H]1CC(=O)N(Cc2nccn2C(C)C)C1,-2%,0.36
COc1ccc(C2CN(S(=O)(=O)c3ccccc3)CC2C(=O)NCc2ccccc2)c(OC)c1 (centres undefined),-23%,2.41
CCC[C@H]1CCN(C(=O)c2coc(COc3ccc(F)cc3Cl)n2)C1,-18%,2.25
CCCCc1nn(CC(=O)N2CCC[C@H](C#N)C2)c(=O)n1Cc1ccccc1,-17%,1.63
NC(=O)CC[C@@H]1N[C@@]2(C(=O)Nc3ccc(Cl)cc32)[C@H]2C(=O)N(CC3CCCO3)C(=O)[C@@H]12 (some centres undefined),28%,-3.22
Cc1cc(C(=O)N2CCC(Oc3nc4ccccc4s3)CC2)on1,-11%,1.66
COc1ccccc1N1CCN(Cc2nc(C(=O)NCCN3CCOCC3)co2)CC1,-9%,1.08
CN(C)C1CCN(C(=O)Nc2ccc(-c3ccccc3F)nn2)CC1,-17%,1.95
